Results as given in ChEMBL document CHEMBL3392926, “Antiprotozoal Activity Profiling of Approved Drugs: A Starting Point toward Drug Repositioning”.

Columns and labels:
Test in all cases: microbe, parasite or virus in culture
Format in all cases: functional, organism-based
[1] = system: Trypanosoma cruzi; settings: Tulahuen C4 (LacZ), 96 h
[2] = system: Trypanosoma brucei rhodesiense; settings: STIB 900, 72 h
[3] = system: Plasmodium falciparum; settings: K1, 72 h
[4] = system: Leishmania donovani; settings: MHOM/ET/67/L82, 72 h
[5] = system: Leishmania donovani; settings: MHOM/ET/67/L82, 96 h

Compound | IC50 [1] [µM] | IC50 [2] [µM] | IC50 [3] [µM] | IC50 [4] [µM] | IC50 [5] [µM]
CNCC[C@H](Oc1ccc(C(F)(F)F)cc1)c1ccccc1 | 19.1 | 2.01 | 1.21 | – | –
Clc1ccccc1C(c1ccccc1)(c1ccccc1)n1ccnc1 [CLOTRIMAZOLE] | – | 23.7 | 0.11 | 2.23 | –
Clc1ccc(COC(Cn2ccnc2)c2ccc(Cl)cc2Cl)cc1 (stereo not drawn) [ECONAZOLE] | – | 41.7 | 0.32 | 6.15 | 14
CCN(CC)CCOc1ccc(/C(=C(/Cl)c2ccccc2)c2ccccc2)cc1 [ENCLOMIPHENE] | 11.5 | 6.21 | 1.37 | 21.6 | –
OCCN1CCN(CCCN2c3ccccc3Sc3ccc(C(F)(F)F)cc32)CC1 [FLUPHENAZINE] | 13 | 2.03 | – | 46.7 | –
Clc1ccc(COC(Cn2ccnc2)c2ccc(Cl)cc2Cl)c(Cl)c1 (stereo not drawn) [MICONAZOLE] | – | 36.6 | 0.49 | 4.39 | 10.8

Other lines, results leading:

IC50 [1] [µM] | IC50 [2] [µM] | IC50 [3] [µM] | IC50 [4] [µM] | IC50 [5] [µM] | Compound
17.9 | 1.87 | 1.14 | – | – | Clc1ccc2c(c1)C(N1CCNCC1)=Nc1ccccc1O2 [AMOXAPINE]
20.3 | 2.06 | 1.3 | 75.7 | – | CN(C)CCCN1c2ccccc2CCc2ccc(Cl)cc21 [CLOMIPRAMINE]
